Here are results for 40 compounds from the antibiotic and cytotoxicity screens of Wong et al. (2023).

Each structure is given as a SMILES string. The list shows a part of the results.

The first experiment deals with HSkMC (human skeletal muscle cells). The experiment in a line: cytotoxicity call (relative viability < 0.9). To be noted: 10 µM.
As for `COc1ccc(C2=CCCC2)cc1`, the cytotoxicity call is “inactive”.

As for `Cc1ccc(S(=O)(=O)N(C)C[C@@H]2Oc3c(NS(C)(=O)=O)cccc3C(=O)N([C@H](C)CO)C[C@H]2C)cc1`, the cytotoxicity call was “inactive”.

Turning to `C[C@H](CO)N1C[C@H](C)[C@H](CN(C)Cc2ccc3c(c2)OCO3)Oc2c(NC(=O)Nc3cccc4ccccc34)cccc2C1=O`, the cytotoxicity call was “inactive”.

`C[C@@H]1CN([C@H](C)CO)C(=O)c2ccccc2-c2ccccc2CO[C@@H]1CN(C)Cc1ccccc1C(F)(F)F`: the cytotoxicity call is “inactive”.

For `COc1ccc(S(=O)(=O)N(C)C[C@@H]2OCCCC[C@@H](C)Oc3ccc(NS(C)(=O)=O)cc3C(=O)N([C@@H](C)CO)C[C@H]2C)cc1`, the cytotoxicity call is “inactive”.

`COc1ccc(-c2cnc3c(c2)C(=O)N([C@@H](C)CO)C[C@H](C)[C@@H](CN(C)C(=O)Cc2ccccn2)O3)cc1`: the cytotoxicity call was “inactive”.

Take `Cc1noc(C)c1S(=O)(=O)Nc1ccc2c(c1)C(=O)N([C@H](C)CO)C[C@H](C)[C@H](CN(C)C(=O)NC(C)C)O2`: the cytotoxicity call is “inactive”.

In the case of `COCCNC(=O)C[C@H]1C[C@H]2c3cc(NC(=O)Nc4ccc(C(F)(F)F)cc4)ccc3O[C@H]2[C@@H](CO)O1`, the cytotoxicity call is “inactive”.

For `C[C@@H]1CCCCO[C@H](CN(C)C(=O)c2ccncc2)[C@H](C)CN([C@@H](C)CO)C(=O)c2cc(NS(=O)(=O)c3cn(C)cn3)ccc2O1`, the cytotoxicity call was “inactive”.

With `O=C(C[C@@H]1CC[C@@H]2[C@H](COC[C@H](O)CN2C(=O)c2ccccc2F)O1)N1CCN(c2ccccc2)CC1`, the cytotoxicity call is “inactive”.

For the next experiment, the system named is HepG2. The experiment in a line: cytotoxicity call (relative viability < 0.9). To be noted: 10 µM.
With `C[C@@H]1CN([C@@H](C)CO)S(=O)(=O)c2ccc(C#C[C@@H](C)O)cc2O[C@@H]1CN(C)C(=O)C1CCCCC1`, the cytotoxicity call is “inactive”.

For `CCn1c(=S)[nH]c2ccccc21`, the cytotoxicity call was “inactive”.

Consider `Cc1ccc(-c2cnc3c(c2)C(=O)N([C@H](C)CO)C[C@H](C)[C@@H](CN(C)C(=O)Cc2cccnc2)O3)cc1`, for which the cytotoxicity call is “inactive”.

Turning to `O=C(C[C@H]1CC[C@H]2[C@@H](COC[C@@H](O)CN2C(=O)Nc2cccc(F)c2)O1)NCCCN1CCOCC1`, the cytotoxicity call was “inactive”.

For the compound `NC(Cc1cc(I)c(Oc2cc(I)c(O)c(I)c2)c(I)c1)C(=O)[O-].[Na+]` (stereo not given), the cytotoxicity call is “inactive”.

For `C[C@H](CO)N1C[C@H](C)[C@H](CN(C)Cc2ccc(C(=O)O)cc2)Oc2ccc(NC(=O)Cn3cnnn3)cc2C1=O`, the cytotoxicity call was “inactive”.

As to `COc1ccccc1S(=O)(=O)N[C@H]1C=C[C@H](CC(=O)N2CCN(C)CC2)O[C@@H]1CO`, the cytotoxicity call was “inactive”.

Turning to `CC(C)Cn1c(N)cc(=O)n(C)c1=O`, the cytotoxicity call was “inactive”.

Turning to `C=CCN1[C@H](Cc2ccccc2)[C@@H](c2cn(CCCCNC(=O)C(=O)NC)nn2)Oc2ccccc2S1(=O)=O`, the cytotoxicity call is “inactive”.

In the case of `C[C@H](CO)N1C[C@H](C)[C@@H](CN(C)Cc2ccccc2)Oc2ccc(NC(=O)Nc3ccc(C(F)(F)F)cc3)cc2C1=O`, the cytotoxicity call is “active”.

With `COc1cc(/C=C/C(=O)N2CCC=CC2=O)cc(OC)c1OCCOCCOCCOCCC(=O)OC(C)(C)C`, the cytotoxicity call is “active”.

As to `C=CCn1c(=O)c2c(OC)ccnc2n(C)c1=O`, the cytotoxicity call was “inactive”.

Consider `CCCCC/C=C/CCC(=O)N[C@H]1[C@H](Oc2c3cc4cc2Oc2ccc(cc2Cl)[C@@H](O[C@@H]2O[C@H](CO)[C@@H](O)[C@H](O)[C@H]2NC(C)=O)[C@@H]2NC(=O)[C@H](NC(=O)[C@@H]4NC(=O)[C@H]4NC(=O)[C@@H](Cc5ccc(c(Cl)c5)O3)NC(=O)[C@H](N)c3ccc(O)c(c3)Oc3cc(O)cc4c3)c3ccc(O)c(c3)-c3c(O[C@H]4O[C@H](CO)[C@@H](O)[C@H](O)[C@@H]4O)cc(O)cc3[C@@H](C(=O)O)NC2=O)O[C@H](CO)[C@@H](O)[C@@H]1O`, for which the cytotoxicity call is “inactive”.

In the case of `c1cc(CCN2CCNCC2)ccn1`, the cytotoxicity call is “inactive”.

As to `COC(=O)C[C@@H]1CC[C@@H]2[C@H](COc3ccc(NS(=O)(=O)c4ccccc4Cl)cc3C(=O)N2C)O1`, the cytotoxicity call is “inactive”.

On to `COc1ccc2c3c(n(c2c1)C)[C@@H](CO)N(Cc1cc(cc(c1)OC)OC)C[C@]13CN(C1)C(=O)NC(C)C`, for which the cytotoxicity call was “inactive”.

As to `O=C1NC2=C(C(=O)OC2)[C@H](c2ccccc2)N1`, the cytotoxicity call is “active”.

`C[C@@H]1CCCCO[C@@H](CN(C)Cc2ccc(Cl)c(Cl)c2)[C@H](C)CN([C@@H](C)CO)C(=O)c2cc(NS(=O)(=O)c3ccc(F)cc3)ccc2O1`: the cytotoxicity call was “active”.

Consider `NC(=O)[C@@H]1C(=O)C[C@@H]2C[C@@H]3Cc4cccc(O)c4C(=O)[C@@H]3C(=O)[C@]2(O)C1=O`, for which the cytotoxicity call was “inactive”.

`C[C@H]1CN([C@@H](C)CO)C(=O)Cc2cc(NC(=O)Nc3ccc4c(c3)OCO4)ccc2O[C@H]1CN(C)C(=O)Nc1cccc2ccccc12`: the cytotoxicity call is “inactive”.

As for `Cc1ccc(S(=O)(=O)N(C)C[C@@H]2Oc3ccc(NS(=O)(=O)c4ccc(F)cc4)cc3CC(=O)N([C@@H](C)CO)C[C@H]2C)cc1`, the cytotoxicity call was “inactive”.

Consider `C[C@H](CO)N1C[C@H](C)[C@H](CN(C)Cc2cncnc2)Oc2cc(-c3ccccc3F)ccc2S1(=O)=O`, for which the cytotoxicity call is “inactive”.

With `O=C1C2CC3CC1CC(O)(C3)C2`, the cytotoxicity call is “inactive”.

For `COc1ccc(CN(C)C[C@@H]2OCCCC[C@H](C)Oc3ccc(NS(=O)(=O)c4cccs4)cc3C(=O)N([C@H](C)CO)C[C@@H]2C)cc1`, the cytotoxicity call was “inactive”.

With `COc1ccc2c3c(n(c2c1)C)[C@H](CO)N(C[C@]13CN(C1)C(=O)c1ccncc1)C(=O)C1CCCCC1`, the cytotoxicity call was “inactive”.

Turning to `C[C@H](CO)N1C[C@H](C)[C@H](CN(C)CC2CCCCC2)Oc2c(NC(=O)Nc3cccc4ccccc34)cccc2C1=O`, the cytotoxicity call is “inactive”.

In the case of `C[C@@H]1CN([C@H](C)CO)S(=O)(=O)c2ccc(C#CCN(C)C)cc2O[C@H]1CN(C)C(=O)C1CCCCC1`, the cytotoxicity call was “inactive”.

`CCCNC(=O)C[C@@H]1CC[C@H]2[C@H](COc3ccc(NC(=O)c4ccc5c(c4)OCO5)cc3C(=O)N2C)O1`: the cytotoxicity call was “inactive”.

On to `C[C@H](CO)N1C[C@H](C)[C@H](CN(C)C(=O)NC2CCCCC2)Oc2ccc(NC(=O)Nc3ccc(C(F)(F)F)cc3)cc2C1=O`, for which the cytotoxicity call is “inactive”.

Take `COc1ccc(CN(C)C[C@H]2OCCCC[C@@H](C)Oc3ccc(NS(=O)(=O)c4ccccc4)cc3C(=O)N([C@H](C)CO)C[C@H]2C)cc1`: the cytotoxicity call was “inactive”.

As for `COc1ccc(C2=CCCC2)cc1`, the cytotoxicity call is “inactive”.

In the case of `Cc1ccc(S(=O)(=O)N(C)C[C@@H]2Oc3c(NS(C)(=O)=O)cccc3C(=O)N([C@H](C)CO)C[C@H]2C)cc1`, the cytotoxicity call was “inactive”.

As to `C[C@H](CO)N1C[C@H](C)[C@H](CN(C)Cc2ccc3c(c2)OCO3)Oc2c(NC(=O)Nc3cccc4ccccc34)cccc2C1=O`, the cytotoxicity call was “inactive”.

On to `C[C@@H]1CN([C@H](C)CO)C(=O)c2ccccc2-c2ccccc2CO[C@@H]1CN(C)Cc1ccccc1C(F)(F)F`, for which the cytotoxicity call was “inactive”.

Consider `COc1ccc(S(=O)(=O)N(C)C[C@@H]2OCCCC[C@@H](C)Oc3ccc(NS(C)(=O)=O)cc3C(=O)N([C@@H](C)CO)C[C@H]2C)cc1`, for which the cytotoxicity call is “inactive”.

Regarding `COc1ccc(-c2cnc3c(c2)C(=O)N([C@@H](C)CO)C[C@H](C)[C@@H](CN(C)C(=O)Cc2ccccn2)O3)cc1`, the cytotoxicity call is “inactive”.

For `Cc1noc(C)c1S(=O)(=O)Nc1ccc2c(c1)C(=O)N([C@H](C)CO)C[C@H](C)[C@H](CN(C)C(=O)NC(C)C)O2`, the cytotoxicity call was “inactive”.

Turning to `COCCNC(=O)C[C@H]1C[C@H]2c3cc(NC(=O)Nc4ccc(C(F)(F)F)cc4)ccc3O[C@H]2[C@@H](CO)O1`, the cytotoxicity call was “inactive”.

In the case of `C[C@@H]1CCCCO[C@H](CN(C)C(=O)c2ccncc2)[C@H](C)CN([C@@H](C)CO)C(=O)c2cc(NS(=O)(=O)c3cn(C)cn3)ccc2O1`, the cytotoxicity call was “inactive”.

Consider `O=C(C[C@@H]1CC[C@@H]2[C@H](COC[C@H](O)CN2C(=O)c2ccccc2F)O1)N1CCN(c2ccccc2)CC1`, for which the cytotoxicity call was “inactive”.
